# Test results: ChEMBL document CHEMBL4888484, “Replenishing the malaria drug discovery pipeline: Screening and hit evaluation of the MMV Hit Generation Library 1 (HGL1) against asexual blood stage Plasmodium falciparum ,using a nano luciferase reporter read-out” (2022)
# Hit rate of the full screen: of about 150,000 compounds, about 540 (0.36%) showed an effect of 50% or more. Some of the results follow.
# Test system: Plasmodium falciparum
# Assay: Primary screen in NF54 nanoGlo assay, in single point, at 2uM, 72h; a lower Z score goes with more inhibition
# Assay type: functional, Erythrocyte
# Details: timepoint 72 hour
SMILES,% Inhibition,Z score
O=C(N[C@H]1CCOC12CCCC2)c1ccc(F)c2ccncc12,1%,-0.12
C=C(C)C[C@H](C)C(=O)NCc1cncc(OC)c1,16%,-2.06
COc1ccc(CN(C)S(=O)(=O)c2ccc3c(c2)CCO3)cc1F,8%,-1.45
N#Cc1c2c(n(C[C@H]3CCCO3)c1NC(=O)CN1CCOCC1)CCCC2,-4%,0.6
COC(=O)N[C@H](C(=O)Nc1cc(C(N)=O)n(C)c1)C(C)C,-2%,0.31
Nc1cncc(-n2ccnc2-c2ccccn2)c1,-9%,1.79
Cc1cccnc1-c1noc([C@H]2OCC[C@H]2C(C)C)n1,-7%,1.35
COc1ccc(-c2nn(-c3ccccc3F)cc2CNCCc2cn[nH]c2)cc1,-20%,1.76
O=C(O)c1ccccc1CN1CCC(c2ccon2)CC1,-15%,2.94
C[C@@H](c1ccon1)N(C)C(=O)c1cnc(-c2cccnc2)nc1O,2%,-0.36
C[C@@H](C(=O)NCC1CCN(Cc2ccccc2F)CC1)n1c2ccccc2c2cnn(C)c(=O)c21,-12%,1.18
CCOc1cccnc1-c1nc(C(=O)NCc2ccc(F)cc2)no1,-16%,2.44
CCNC(=O)N1Cc2nc[nH]c2C[C@H]1C(=O)NCc1ccccc1,31%,-3.47
CCCCCN(C(=O)Nc1cccc(C#N)c1)[C@@H](C)CCC,-14%,1.43
CCC1(CC)Oc2ccc(N[C@@H](C)CCn3cncn3)cc2O1,-9%,0.8
CCN(C(=O)c1ccn(C(C)C)n1)c1cccnc1C,-6%,0.66
O=C(Nc1nc(CN2CCCCCC2)cs1)c1cc2ccccc2o1,-11%,1
NC(=O)Cn1ccnc1-c1ccccc1-c1ccccc1,-5%,0.63
Cc1ccc(-n2nc(C(=O)N(C)Cc3nncn3C)c3c2CCC3)c(C)c1,-2%,0.35
O=C(NCC(=O)N1CCN(c2ccccc2)CC1)c1cccs1,-4%,0.84
COC(C)(C)CCCC(C)CCNCC1COCCO1 (centres undefined),0%,-0.01

SMILES,% Inhibition,Z score
COc1ccc(CNC(=O)c2sc3ncnc(N4CCCCCC4)c3c2C)cc1,15%,-1.4
COCCCN1CC[C@H](CNC(=O)c2cccc(-c3ccc(F)cn3)c2)C1,-10%,1.8
C[C@@H](c1nnnn1C1CC1)N1CCC(C)(CN2CCN(C)CC2)CC1,-5%,0.67
CCCC[C@@H](C(=O)Nc1cc(C)on1)N1CC(n2nc(C)cc2C)C1,-3%,0.56
O=C(c1ccccn1)N1CCN(Cc2cccc(F)c2)[C@@H]2CS(=O)(=O)C[C@@H]21,2%,-0.36
CCOC1CC(Nc2ncnc3c(C)cccc23)C1OC (centres undefined),-12%,1.93
CC1(C)CC(NC(=O)c2cccc(-c3ccc(F)cn3)c2)CC(C)(C)N1,-4%,0.54
Cc1ccccc1[C@H]1C[C@@H]1C(=O)Nc1cccc(CC(=O)O)c1,-16%,2.98
CCc1nc(C(C)C)nc(N2CCN(C(=O)c3cccs3)CC2)c1Cc1ccccc1F,-6%,0.59
CCCc1cc(N(C)CCc2cn[nH]c2)nc(C)n1,7%,-0.9
Cc1nc(-c2ccc(C)c(S(=O)(=O)NC3CCCCCC3)c2)no1,0%,-0.06
COc1ccc(S(=O)(=O)N[C@H]2CCC[C@@H](CO)C2)cc1Cl,-19%,1.95
Cc1noc(-c2cn(C(C)C)nc2C)n1,-16%,2.14
O=C(NCCc1ccc2c(c1)OCO2)c1cnn(Cc2ccccc2)c1,6%,-1
O=C(Cn1nc(-c2ccco2)c2sc(N3CCOCC3)nc2c1=O)Nc1ccc(F)cc1F,-1%,0.14
Cn1cc(C(=O)N2CCC(c3ccccc3)CC2)ccc1=O,-7%,0.85
c1ccc2[nH]c(CCn3ccnc3-c3ccncc3)nc2c1,-11%,1.54
O=C1C[C@H]2CC[C@@H](CN1)N2S(=O)(=O)c1ccccc1,0%,-0.03
CN(C)C[C@@H](O)CNC(=O)c1sccc1Cl,-19%,1.65
O=S(=O)(N[C@H]1CCc2nnc(-c3ccc(F)cc3)n2C1)c1cccnc1,32%,-4.61
CC[C@H](Oc1ccccc1C)c1nnc(C2(c3ccccc3)CC2)o1,-15%,1.76
